Source: PubChem BioAssay AID651820 (National Center for Advancing Translational Sciences (NCATS), 2012)
The campaign covered roughly 340,000 compounds. About 12,000 (3.5%) were called active. Inconclusive results, whose numbers are uncertain, are shown with a selection of clear calls. The call rests on the fitted dose curve; in most records, active means well fitted inhibition curve with a large enough effect; inconclusive means small, poorly fitted or top-dose-only effect, or another doubt; inactive means no such curve, though single readings can be large or run the other way. Potencies of inconclusive entries are left out as doubtful fits.

Assay: qHTS Assay for Inhibitors of Hepatitis C Virus (HCV)
Conditions: Huh7.5.1 HCVcc-Cre (HCVcc is cell-culture hepatitis C virus) infection, luciferase reporter, 44 h; activity change, negative = inhibition: at 41.8 µM (top of the series) unless noted
In short: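 Infectious HCVcc-Cre (~0.5 moi) was added to cells just after compound, with cells seeded 4 h earlier at 1,000 per well. Luciferase activity after 44 h culture reported infection; substrate was incubated 15 min at room temperature before reading.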
On the % scale 0 is the no-effect control and ±100 the full control effect; potency means the concentration at half of the fitted maximal effect; tags describe the fitted curve by direction and shape.

| SMILES | Potency | activity change, negative = inhibition |
| --- | --- | --- |
| CCn1c(SCc2ccccc2Cl)nc2nc3c(cc2c1=O)CCCC3 | inconclusive [inhibitor, single point] |  |
| O=C(c1c(Cl)nc2sccn12)N1CCN(c2cccc(Cl)c2)CC1 | inconclusive [inhibitor, partial curve, poor fit] |  |
| O=C(CCCCn1cnc2c(=S)nc[nH]c21)Nc1ccc(C(=O)O)c(O)c1 | inactive |  |
| NS(=O)(=O)c1ccc(N=Nc2ccc(O)c3ncccc23)cc1 | active: 3.55 µM |  |
| CCOC(=O)Cn1cc(/C=N/NC(=O)c2ccc(C#N)cc2F)c2ccccc21 | inconclusive [inhibitor, single point] |  |
| CN(C)c1ccc(/C=C/C(=O)c2ccc(O)cc2)cc1 | inconclusive [inhibitor, partial curve] |  |
| Cc1ccc(CC(=O)N(Cc2ccccc2)c2ccccn2)cc1 | inactive |  |
| CCNC(=O)c1ccc(NC(=O)CC2SC(N3CCCCC3)=NC2=O)cc1 (stereo not drawn) | inactive |  |
| COc1ccc(F)cc1Cn1nc(C(=O)O)c2ccccc2c1=O | inconclusive [inhibitor, single point] |  |
| Cc1nc(C(=O)NCc2ccccc2)sc1C1(C)CC(c2ccccc2)=NO1 (stereo not drawn) |  | inactive: 13.2% [at 8.37 µM] |
| COc1ccccc1N1CCN(C(=O)C2c3ccccc3Oc3ccccc32)CC1 | inconclusive [inhibitor, full curve] |  |
| CCN(CC)S(=O)(=O)c1ccc(S(=O)(=O)Nc2cc3c(cc2C(C)=O)OCO3)cc1 | inconclusive [inhibitor, partial curve] |  |
| CCOc1ccc2c(c1)C(C)=CC(C)(C)N2C(=O)Nc1ccccc1F | inactive |  |
| CCCCCc1nnc(NC(=O)NS(=O)(=O)c2ccc(C)cc2)s1 | inactive |  |
| O=[N+]([O-])c1ccccc1/C=N\Nc1nccs1 | inconclusive [inhibitor, single point] |  |
| Cc1nnc(C)c2c(C)n(C(c3ccccc3)c3ccccc3)c(C)c12 | inconclusive [inhibitor, single point] |  |
| Cn1ccsc1=NC(=O)c1ccc(Cl)c([N+](=O)[O-])c1 | inactive |  |
| C[C@H](NC(=O)N1CCn2c1nc1ccccc12)C(=O)NCc1ccc2c(c1)OCO2 | inactive |  |
| COC(=O)c1cc2ccsc2n1Cc1nc(-c2cccc(Cl)c2)oc1C | inactive |  |
| O=C(NCC1CCN(Cc2cccc(Cl)c2)CC1)Nc1ccc(Cl)cc1 | inconclusive [inhibitor, single point] |  |
| CCCn1c(CCC(=O)Nc2ccccc2Cc2ccccc2)nc2cc(S(=O)(=O)N3CCOCC3)ccc21 | inconclusive [inhibitor, partial curve] |  |
| Cc1nn(-c2ccccc2)c(C)c1NC(=O)COc1ccc(Cl)cc1Cl | inconclusive [inhibitor, full curve] |  |

| SMILES | Potency | activity change, negative = inhibition |
| --- | --- | --- |
| O=C(O)/C=C\C(=O)Nc1ccccc1C#Cc1ccccc1 | active: 11.2 µM |  |
| CN(Cc1ccccc1F)c1ncnc2sccc12 | inconclusive [inhibitor, partial curve] |  |
| CC(C)CN(CCNC(=O)CN1N=C(c2ccc(Cl)cc2)CCC1=O)CC(C)C | inconclusive [inhibitor, single point] |  |
| CCOc1ccc(C2(C)NC(=O)N(CCN(C)C)C2=O)cc1 (stereo not drawn) | inconclusive [inhibitor, single point] |  |
| COc1ccc(NC(=O)C2C3C=CC4(O3)C2C(=O)N(CCN2CCCCC2C)C4C(=O)NC2CCCCC2)cc1 (stereo not drawn) | inconclusive [inhibitor, partial curve] |  |
| Cc1ccc(-c2nc(N)c3c(-c4ccc(C)cc4)nn(C(C)(C)C)c3n2)cc1 | inconclusive [inhibitor, partial curve, poor fit] |  |
| O=C(NCc1ccccc1)c1onc(CSc2ccccc2)c1C(=O)NCc1ccccc1 | inconclusive [inhibitor, single point] |  |
| O=C(Cn1nnc(-c2ccccc2NC(=O)c2ccco2)n1)Nc1ccccc1 | inconclusive [inhibitor, partial curve] |  |
| COc1ccccc1NS(=O)(=O)c1cccc(NC(=O)c2cncc(Br)c2)c1 | active: 12.6 µM |  |
| CCc1ccc2[nH]c(=O)c(C3C(C#N)=C(N)Oc4c3ccc3cccnc43)cc2c1 (stereo not drawn) | active: 11.2 µM |  |
| CC1Cc2ccccc2N1C(=O)CN1CCC(n2nnc3cc(C(F)(F)F)ccc32)CC1 (stereo not drawn) | inconclusive [inhibitor, single point] |  |
| O=C(c1ccc([N+](=O)[O-])o1)N(Cc1nnc(-c2ccccc2Cl)o1)C1CC1 | inconclusive [inhibitor, single point] |  |
| COc1ccc(-c2cnc(N)n2C)cc1 | inconclusive [inhibitor, single point] |  |
| Cc1ccc(C(=O)c2cc([N+](=O)[O-])ccc2N2CCOCC2)cc1 | inconclusive [inhibitor, partial curve] |  |
| COc1ccc(C(=O)NC(=O)COC(=O)c2ccc3ncsc3c2)cc1 | inactive |  |
| O=C(COc1coc(CN2CCN(c3ccccc3)CC2)cc1=O)NC1CCCCC1 | inactive |  |
| Cc1ccc(S(=O)(=O)N2CCC[C@H]2C(=O)Nc2ccccc2Cl)cc1 | inconclusive [inhibitor, single point] |  |
| COC(=O)C1=C(c2ccc(-c3ccccc3)c(F)c2)C[C@@H]2CC[C@H]1N2C(=O)NCCCOC(C)C | inconclusive [inhibitor, single point] |  |
| CCOC(=O)N1CCN(C(=O)CSc2ccc(-c3ccc(OC)cc3)nn2)CC1 | inconclusive [inhibitor, single point] |  |
| O=C1NC[C@H](c2ccccc2)OC(=O)[C@H](Cc2ccc(F)cc2)C/C=C\C[C@H]1CC(=O)N(CCO)Cc1ccccc1 | inconclusive [inhibitor, single point] |  |
| COc1cccc(/C=C/C(=O)OCC(=O)c2ccc(C)c(C)c2)c1OC | inconclusive [inhibitor, partial curve] |  |
